From the RNAGym collection of RNA variant scans (doi:10.7554/elife.90254)
The source gives no read counts; variants with many changes may rest on few reads.

B1: OR4K15 (parent)
chain: GUUAACGGUCAUAGGCCAUGGAAACUAGGAGCACCAUUUCGCUGCCAGUGAAGAAAUGAACAAAGAAAAUCUGGGCCAGGCAGGCAUCAAAAGAAAUAGUCUUGCGCUCAACCAGAAAGUCUGUAAUCAUUUUAAGGGUA

Variants of: B1
Assay: self-cleavage, relative activity (ratio to wild type); higher = more cleavage; in vitro, sequencing; the parent is a self-cleaving ribozyme

Variant | self-cleavage
U37C A54G G58A | 1.71
U37C A54G U120A | 1.14
U37C A55G A66G | 1.54
U37C A55G A116G U132C | 0.62
U37C A55G A118G | 1.33
U37C A55U A66G | 2.07
U37C A55U U70C | 1.04
U37C A56G A59G A60G U108A | 0
U37C A56G A94G | 1.05
U37C A56G U72C U87C | 0.34
U37C A56G U87G U124C | 0.26
U37C A59G A60G U72A A91G A117U | 0.18
U37C A59G A62G A86G | 1.65
U37C A59G A67G U120C | 0.84
U37C A60G A126C | 1.05
U37C A60G G83U A94G U130C | 0.38
U37C A60G G104A U130C | 0.02
U37C A60G U100C | 1.8
U37C A60U A69G U122C | 1.1
U37C A63G A68G G74A A135G | 0.21
U37C A63G A86G U97C | 0.54

Variant | self-cleavage
U37C A63G A92G A96G | 0.54
U37C A63G A114G | 0.56
U37C A64G C88U | 1.63
U37C A64G U87C U122C | 1.8
U37C A66G A68G | 0.68
U37C A66G A68G U127C | 1.29
U37C A66G U72C A78U A117G A126U | 0.09
U37C A66G U130C | 2.16
U37C A67U U87C | 1.75
U37C A68G U72C A90G | 0.05
U37C A68G U102C C107U A118U | 0
U37C A68U A140U | 2.24
U37C A69G A82G U108C A116U | 0.04
U37C A69G U124C | 0.2
U37C A78U C88A | 0.43
U37C A82G G106A | 0.01
U37C A82G U102C | 1.16
U37C A82G U127C A135G | 0.1
U37C A82U A135G | 0.51
U37C A82U A140G | 0.11
U37C A86G A114U | 0.02

Variant | self-cleavage
U37C A90G A116U U131C | 0.04
U37C A92C U108C | 0.01
U37C A92G U102C A114G A126G U130C | 0.1
U37C A94G A126G A135G | 0.56
U37C A95G A116G | 0.59
U37C A95G A129G U131C | 2.15
U37C A96G U100C A140G | 2.6
U37C A110U U130C A134G | 0.9
U37C A111G A114U | 0.03
U37C A111G A118G | 0.01
U37C A111U A117U | 0.03
U37C A114G A118G | 0.05
U37C A116G U120C | 0.36
U37C A117G A135G | 1.54
U37C A126G U130C | 1.12
U37C C40U A60G U70A | 0.57
U37C C40U U87A A114G A125G | 0.11
U37C C45A A55G | 1.45
U37C C46U U87C | 1.48
U37C C61A A63G A96G U122A U124A | 0.46
U37C C61A A118G | 1.2

Variant | self-cleavage
U37C C61U A68U G99A | 0.82
U37C C109A U133C | 0.17
U37C G41C G58A A82C | 0.26
U37C G41U U108C | 0.02
U37C G44U A55U C61U A62U U70A A118G | 0.97
U37C G48A A51G U57A | 1.69
U37C G53U A117G | 1.86
U37C G75A U130C | 0.12
U37C G84C A95G | 0.78
U37C U38C A52G | 1.8
U37C U38C A64C | 0.77
U37C U38C A68G A86U A117G | 2.21
U37C U38C A82U U103C U122A | 0.04
U37C U38G G74A G83A | 0.22
U37C U39A A60U U87C A110U | 1.75
U37C U39A A66G A86G | 1.15
U37C U39A U102C | 1.9
U37C U39A U102C U130C | 2.36
U37C U39C A52G U100C | 1.81
U37C U39C A64G A86G U122G U131A | 2.15
